The list shows a part of the results.

The test has as its system T1, C. trachomatis L2/434/Bu expressing GFP (CTL2-GFP).
T1 construct: L2/434/Bu GFP intracellular growth in HeLa cells
Further details: species or system HeLa; C. trachomatis total inclusion area by high-content imaging, normalised to DMSO. The conditions noted are these: total inclusion area; 28.5 h, 10 µM; inhibitor. The method in brief: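 Imaging read-out: GFP inclusions and Hoechst nuclei captured by high-content imaging after fixation. Inclusion area/number = chlamydial growth; nuclei count = host cell viability. MIC calculated per earlier method.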
As to `Cc1[nH]c2ccccc2c1C(=O)CSc1nncc2ccccc12` [CBK297912], the “% of control remaining” value worked out at 88.7797.

For the compound `Oc1c(Cl)cc(Cl)cc1/C=N/c1ccc(-c2nc3ccc(/N=C/c4cc(Cl)cc(Cl)c4O)cc3[nH]2)cc1` [CBK261660], the “% of control remaining” value came out at 109.12.

Regarding `O=C(c1cccc2ncccc12)N1CCN(CC2CCOC2)CC1` (stereo not drawn) [CBK305140], the “% of control remaining” value is 47.5479. On to `N=C(N)NC(=N)NCCc1c[nH]c2ccccc12` [CBK267706G], for which the “% of control remaining” value came out at 82.0213. With `CSc1nc(=O)c(CCC(=O)O)n[nH]1` [CBK019689] the figure was 72.977. For `CC(C)(C)C1=CC2=NC3(CCC3)[C@@H]3C[C@@H](O)[C@@H](O)[C@@H]3N2O1` [CBK303243] the value was 92.1149. For `CCCc1[nH]nc(O)c1Cc1cc(C(F)(F)F)ccc1Cl` [CBK075032] the value was 80.7239; for `Cc1cccc(OCC(=O)NCCCc2ccccc2)c1C` [CBK265507], 97.992.

As to `COc1ccc(Sc2nc3ccccc3nc2N2CCCC2)cc1OC` [CBK093797], the “% of control remaining” value was determined as 108.99. For `COC(=O)c1ccccc1NC(=O)CN(C)S(=O)(=O)c1c(C)cc(C)cc1C` [CBK266241] the value was 103.065; for `C=C(C)CNC(=O)c1ccc(C)nc1N1CCN(C(=O)c2ccco2)CC1` [CBK076401], 80.3671; for `OCCSCc1ccc2nonc2c1` [CBK020617], 25.2771. With `CCn1c2ccccc2c2cc(NC(=O)C(C)Sc3n[nH]c(=O)n3C3CC3)ccc21` (stereo not drawn) [CBK296636] the figure was 91.6252; with `CC(C)(CO)CNc1cncc(-c2cccc(Cl)c2)n1` [CBK037862], 74.3487. With `O=C(c1ccc2c(c1)OCO2)N1CCN(C(=O)c2ccc(Cl)cc2F)CC1` [CBK296685] the figure was 114.581. As for `CCn1c(COc2ccc(Cl)c3cccnc23)nnc1SC` [CBK266611], the “% of control remaining” value came to 106.572. With `CCn1c(=O)n(CC(=O)N2CCCC2)c2cccnc21` [CBK283904] the figure was 85.6986; with `O=C(O)C(Cc1c[nH]cn1)N1C(=O)C2CC=C(Cl)CC2C1=O` (stereo not drawn) [CBK286871], 85.5506. In the case of `CCOC(=O)CNS(=O)(=O)c1ccc(-c2ccccc2)cc1` [CBK034435], the “% of control remaining” value is 84.2243. Consider `O=c1ccc2cccc(OCCO)c2o1` [CBK149730], for which the “% of control remaining” value amounted to 75.395. With `Cc1cc(-c2ccc(=O)n(CCNC(=O)C3CCC3)n2)c(C)o1` [CBK284520], the “% of control remaining” value came out at 70.8399. For `O=C(NC(c1ccccc1)c1ccco1)C1CCN(CCc2c[nH]c3ccccc23)CC1` (stereo not drawn) [CBK148290] the value was 105.791; for `CC(=O)N1CCc2cc(-c3cc4cc(C)ccn4c3)ccc21` [CBK285228], 112.004.

Consider `O=C(O)c1cccc(NS(=O)(=O)c2ccc3c(c2)OCCO3)c1` [CBK155697], for which the “% of control remaining” value turned out to be 104.365. With `CCCc1ccc(S(=O)(=O)Nc2ccc(C(=O)N3CCN(C)CC3)cc2)cc1` [CBK034547] the figure was 95.9161; with `O=C(Nc1cccc(Cl)c1Cl)N1CCC(n2c(=O)[nH]c3ccccc32)CC1` [CBK149856], 93.0045; with `Cc1cc(Oc2ccccc2)nc(Oc2ccc(=O)n(-c3ccccc3)n2)n1` [CBK269843], 81.5585. Take `O=[N+]([O-])c1ccc(CSc2nnc(-c3cccs3)n2Cc2ccco2)cc1` [CBK267588]: the “% of control remaining” value was 91.377. On to `COCCNc1nc(-c2cccc(C(N)=O)c2)cnc1N` [CBK063901], for which the “% of control remaining” value came to 97.7651. On to `Cc1cc(COc2nccnc2N2CCN(Cc3ccc([N+](=O)[O-])cc3)CC2)no1` [CBK084189], for which the “% of control remaining” value is 75.8107. For `COc1ccc(Cl)cc1NC(=S)NCCn1cc(Cl)cn1` [CBK267063] the value was 125.262; for `O=C(CN1CCN(Cc2ccc3c(c2)OCO3)CC1)Nc1ccc(Cl)cc1C(=O)c1ccccc1` [CBK264241], 95.3634; for `COc1cc(C(=O)Nc2cc(-c3nc4ncccc4o3)ccc2C)cc(OC)c1OC` [CBK101133], 116.835.

As for `Cn1c(NC(=O)c2ccccc2[N+](=O)[O-])cc(=O)n(C)c1=O` [CBK294417], the “% of control remaining” value is 119.381.

For `O=C(OCc1nc2ccccc2[nH]1)N1CCOCC1` [CBK200146], the “% of control remaining” value is recorded as 93.8672. With `CNC(=O)c1sc2ccccc2c1C1CCN(Cc2cnc(-c3ccc(C)cc3)nc2)C1` (stereo not drawn) [CBK285883], the “% of control remaining” value is on record as 70.7643. Regarding `CN(C)C(=O)c1ccc(-c2ccc(OC3CCN(C(=O)CCC(=O)N4CCCC4)CC3)nc2)cc1` [CBK155051], the “% of control remaining” value is listed as 79.8399. With `O=C1/C(=C/c2ccc(OCc3cccc([N+](=O)[O-])c3)cc2)SC(=S)N1CCc1ccccc1` [CBK264641] the figure was 106.353; with `O=C(c1cccnc1)N1CCCC(n2cnc3cc(F)ccc32)C1` (stereo not drawn) [CBK284474], 110.465. As to `O=C(Nc1ccc(-c2noc(COc3ccc(Br)cc3)n2)cc1)c1ccc2c(c1)OCO2` [CBK266692], the “% of control remaining” value is on record as 94.1617. In the case of `CCC(Oc1nc2ccccc2nc1-c1ccccc1NC(C)=O)C(=O)c1ccccc1` (stereo not drawn) [CBK267315], the “% of control remaining” value was found to be 77.1004. For `CCN1CCN(C(=O)c2cccc(N(C)C)c2)C(Cc2ccc(-c3ccncc3)cc2)C1=O` (stereo not drawn) [CBK285813], the “% of control remaining” value was 102.195.

For the compound `CC(C)(C)c1nn(CC2CCCCC2)c(=N)s1` [CBK075042], the “% of control remaining” value came out at 45.4777. With `O=C(Nc1ccc(S(=O)(=O)Nc2ccc(Cl)c(C(F)(F)F)c2)cc1)c1ccc(CN2CCOCC2)cc1` [CBK264777] the figure was 73.9921; with `c1cnc(NCc2cc3n(n2)CCN(CC2CCCCC2)C3)cn1` [CBK307592], 73.6887; with `CCC(CC)C(=O)N1c2ccccc2C(C)(c2ccccc2)CC1(C)C` (stereo not drawn) [CBK073862], 43.7295. With `CC(NC(=O)c1ncoc1-c1ccccc1Cl)c1ccccn1` (stereo not drawn) [CBK282409], the “% of control remaining” value was determined as 135.552.

As for `CC(c1ccc(S(C)(=O)=O)cc1)N(C)C(=O)COc1ccc2ccccc2c1` (stereo not drawn) [CBK296738], the “% of control remaining” value stood at 107.661. On to `CC(=O)N1CCc2sccc2C1c1ccc(NCc2ccc(F)c(F)c2)cc1` (stereo not drawn) [CBK286452], for which the “% of control remaining” value turned out to be 101.944.

On to `O=[N+]([O-])c1cccc(/C=N/Nc2nc(-c3ccccc3)cc(-c3ccccc3O)n2)c1` [CBK261722], for which the “% of control remaining” value was 97.7936. Regarding `Cc1cc(C)cc(NC(=O)CSc2ncccn2)c1` [CBK287577], the “% of control remaining” value is listed as 107.162. `C=CCc1cc(C)cc(C)c1OCCN1CCN(CC)CC1` [CBK267392G]: the “% of control remaining” value was determined as 115.747. With `CC(=O)NC(N(C)S(=O)(=O)c1ccc(C)cc1)C(Cl)(Cl)Cl` (stereo not drawn) [CBK262662] the figure was 98.5368; with `CC(C)(C)c1ccc(OCC(O)CNS(=O)(=O)O)cc1` (stereo not drawn) [CBK261169N], 84.2913; with `CCC(=O)N1CCc2cc(C(O)CN3CCCCC3C)ccc21` (stereo not drawn) [CBK283112], 111.319. For `COc1ccc([C@@]23CC[C@@H](NC(=O)CNc4ccc(Cl)c(Cl)c4)C[C@@H]2N(C)CC3)cc1OC` [CBK038220] the value was 61.5076; for `Cc1nc(C(=N)N)nc2ccccc12` [CBK010368C], 46.6357. With `CC(=O)c1ccc(C(=O)Nc2sc3c(c2C#N)CCN(C(C)=O)C3)cc1` [CBK304418], the “% of control remaining” value came to 78.0069. For `Cc1ccc(/C=C2\SC(=S)N(CC(=O)Nc3cccc(C(=O)O)c3)C2=O)cc1` [CBK263935] the value was 102.764; for `Cc1csc(-c2ccc(C(=O)N3CCN(C)CC3)c(N3CCOCC3)n2)c1` [CBK106195], 83.7701; for `CC(C)(C)C1CCC(=NNC(=O)c2ccc(CN3CCOCC3)cc2)CC1` (stereo not drawn) [CBK018812], 97.5993. With `Cc1nnc2ncc(-c3ccccc3C(=O)N(C(C)C)C(C)C)cn12` [CBK307393] the figure was 108.295; with `O=C(CC(CC(=O)c1ccc(Cl)cc1)c1ccccc1C(=O)O)c1ccc(Cl)cc1` [CBK265604], 100.005.

With `CCCCN(C(=O)c1cc(C)nc2ccccc12)c1ccccc1` [CBK296926], the “% of control remaining” value was 90.3408.

Regarding `O=C(Nc1nc(-c2cc3ccccc3o2)cs1)c1ccc(F)cc1` [CBK287756], the “% of control remaining” value was found to be 110.522. As for `Cc1ccc(C(=O)NC(=O)CSc2nc(N)n[nH]2)cc1` [CBK267523], the “% of control remaining” value is reported as 108.105. For `COc1cccc(-c2noc(C3CCN(CCc4ccccc4)CC3)n2)c1` [CBK051455], the “% of control remaining” value was determined as 77.7623. For `O=C(O)c1cccc(S(=O)(=O)N2CCC(C(=O)O)CC2)c1` [CBK267199] the value was 108.493; for `COc1cc(C(=S)N2CCN(C)CC2)ccc1OCC(N)=O` [CBK269037], 104.563. As for `O=C(O)c1cccc(NS(=O)(=O)c2ccc(CNC(=O)c3ccc(Cl)cc3)s2)c1` [CBK155085], the “% of control remaining” value was found to be 88.1497. On to `CCc1cccc2c(CN3CCc4c(nc(C)[nH]c4=O)C3)c[nH]c12` [CBK283993], for which the “% of control remaining” value is on record as 82.3705. Consider `CCC1(c2ccccc2)OCC(C2CCCCN2)O1` (stereo not drawn) [CBK023284C], for which the “% of control remaining” value was 91.502. On to `O=C(O)CN1C(=O)C(O)=C(C(=O)c2ccc(Cl)cc2)C1c1ccccc1[N+](=O)[O-]` (stereo not drawn) [CBK263794], for which the “% of control remaining” value turned out to be 123.988. Take `CC(C)(c1ccc(Oc2cccc(N)c2)cc1)c1ccc(Oc2cccc(N)c2)cc1` [CBK260958]: the “% of control remaining” value was found to be 83.1298. With `CC(C)CN(Cc1cccs1)C(=O)c1cc2n(n1)CCCN(C)C2` [CBK306793] the figure was 76.9761. Consider `CCN(CC(=O)NCc1ccc(F)cc1)C(=O)c1cc(C#N)c[nH]1` [CBK305221], for which the “% of control remaining” value amounted to 52.6929. For the compound `Cc1cc(C2(C(F)(F)F)C=C3c4ccccc4CC(C)(C)N3C2=O)cc(C)c1O` (stereo not drawn) [CBK017463], the “% of control remaining” value is 78.1746. As for `CCCS(=O)(=O)Nc1nccnc1-c1cccs1` [CBK050763], the “% of control remaining” value worked out at 107.149.
